{"source": "PubChem BioAssay AID504832", "about": "(National Center for Advancing Translational Sciences (NCATS), 2011)", "note": "The campaign covered roughly 310,000 compounds. About 18,000 (5.8%) were called active. Inconclusive means that the source gave no clear call. Such entries were picked first, then a sample of the others. Calls come from the whole dose curve; as a rule, active = well fitted inhibition curve with a large enough effect; inconclusive = small, poorly fitted or top-dose-only effect, or another doubt; inactive = no such curve, though single readings can be large or run the other way. No potency is given beside an inconclusive call; the fits are too rough. % is set by controls: 0 for no effect and ±100 for the full control effect; potency is the fitted concentration of half-maximal effect; tags give direction and shape of the fitted curve.", "data": [{"experiment": "Primary qHTS for delayed death inhibitors of the malarial parasite plastid, 48 hour incubation", "conditions": "P. falciparum luciferase growth in erythrocytes; series mostly up to 28.7 µM; activity change, negative = inhibition: at the top concentration", "outline": "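Here the parasites carry a stable luciferase gene and grow inside erythrocytes in Albumax-based RPMI medium with compound for one erythrocytic cycle. Activity is scored as loss of luminescent signal.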", "values": [{"smiles": "O=S(=O)(O)Oc1c[nH]c2ccccc12", "Potency": "active: 7.38 µM"}, {"smiles": "COC(=O)[C@@]1(Cc2ccc(OC)cc2)[C@H]2c3cc(C(=O)N(C)C)n(Cc4ccc(OC(F)(F)F)cc4)c3C[C@H]2CN1C(=O)c1ccccc1", "Potency": "inconclusive [inhibitor, full curve]"}, {"smiles": "O=C(COc1ccc(Br)cc1CO)Nc1ccccc1", "activity change, negative = inhibition": "inactive: 18.2%"}, {"smiles": "CCOc1ccc(CCNC(=O)COC(=O)c2ccc(Cl)nc2)cc1OCC", "Potency": "inconclusive [inhibitor, single point]"}, {"smiles": "CCOc1ccc(NC(=O)CN(C)C(=O)c2ccc3c(c2)C(=O)N(CCC(C)C)C3=O)cc1OCC", "activity change, negative = inhibition": "inactive: 47.4%"}, {"smiles": "COc1cccc(-c2sc3ccc(OC)cc3c2C#CC(C)(C)O)c1", "Potency": "inconclusive [inhibitor, single point]"}, {"smiles": "Cc1ccc(-c2nnn(CC(=O)N(CC(=O)NC3CCCCC3)c3ccccc3F)n2)o1", "Potency": "inconclusive [inhibitor, partial curve, poor fit]"}, {"smiles": "COc1cc2c(cc1NC(=O)/C=C/c1cc(OC)c(OC)c(OC)c1)oc1ccccc12", "Potency": "inconclusive [inhibitor, single point]"}, {"smiles": "COc1ccc(C)cc1NC(=O)c1sc2nc(C)nc(N3CCOCC3)c2c1C", "Potency": "inconclusive [inhibitor, partial curve, poor fit]"}, {"smiles": "COc1ccc(-n2c(SCC(=O)NCc3cccs3)nc3[nH]ncc3c2=O)cc1", "Potency": "inconclusive [inhibitor, partial curve, poor fit]"}, {"smiles": "CCCC[C@]12Cc3ccccc3C(O1)c1c(cc(-c3ccccc3)oc1=O)O2", "Potency": "active: 0.426 µM"}, {"smiles": "COCCN(C(=O)c1ccc(-c2ccc(Cl)cc2)o1)c1c(N)n(CC(C)C)c(=O)[nH]c1=O", "Potency": "inconclusive [inhibitor, single point]"}, {"smiles": "CC(C)Cc1ccc(C(C)NC(=O)Cc2ccc(S(=O)(=O)N3CCOCC3)s2)cc1", "note": "(stereo unspecified)", "activity change, negative = inhibition": "inactive: 0.315%"}, {"smiles": "COc1ccc(-c2cn3c(C)c(C(=O)N4CCN(c5ccccc5F)CC4)sc3n2)cc1", "Potency": "inconclusive [inhibitor, partial curve, poor fit]"}, {"smiles": "CC#CC[N+](C)(C)CCCCCC", "Potency": "active: 10.4 µM"}, {"smiles": "Fc1cc(Br)ccc1COc1ccc(-c2nnco2)cc1", "activity change, negative = inhibition": "inactive: 84.4%"}, {"smiles": "O=C(Nc1nc(C2C3CC4CC(C3)CC2C4)cs1)c1cc2cc([N+](=O)[O-])ccc2oc1=O", "note": "(stereo unspecified)", "Potency": "inconclusive [inhibitor, single point]"}, {"smiles": "C=CCn1c(SCC(=O)NC2CCCc3ccccc32)nnc1-c1ccncc1", "note": "(stereo unspecified)", "Potency": "inconclusive [inhibitor, single point]"}, {"smiles": "COc1ccc(CCNC(=O)CN(c2cc(OC)ccc2OC)S(=O)(=O)c2ccccc2)cc1", "Potency": "active: 9.28 µM"}, {"smiles": "COc1ccc(C(=O)Nc2ccc(NC(C)=O)cc2)cc1S(=O)(=O)N1CCCCC1C", "note": "(stereo unspecified)", "Potency": "inconclusive [inhibitor, single point]"}, {"smiles": "Cn1c(N)c(C(=O)COC(=O)/C=C/c2ccc(S(=O)(=O)N3CCOCC3)cc2)c(=O)n(C)c1=O", "Potency": "inconclusive [inhibitor, partial curve, poor fit]"}, {"smiles": "O=C(c1ccc2c(=O)n3c(nc2c1)CCCCC3)N1CCN(c2ccccc2F)CC1", "activity change, negative = inhibition": "inactive: 6.86%"}, {"smiles": "CCC(=O)NC(Nc1sc2c(c1C(=O)OC)CCC2)C(Cl)(Cl)Cl", "note": "(stereo unspecified)", "Potency": "inconclusive [inhibitor, partial curve]"}, {"smiles": "COc1ccc2c(c1)c(C(C)=O)c(C)n2-c1ccc(C(C)=O)cc1", "Potency": "inconclusive [inhibitor, single point]"}, {"smiles": "COc1ccc(-c2cc(C(F)F)n3ncc(C(=O)NCCCN4CCCC4=O)c3n2)cc1", "Potency": "inconclusive [inhibitor, single point]"}, {"smiles": "O=C(COC(=O)c1cc([N+](=O)[O-])ccc1N1CCOCC1)NC1CCS(=O)(=O)C1", "note": "(stereo unspecified)", "Potency": "inconclusive [inhibitor, single point]"}, {"smiles": "Cc1ccccc1-n1nc2c(c1NC(=O)c1cc3ccccc3oc1=O)CS(=O)C2", "note": "(stereo unspecified)", "Potency": "inconclusive [inhibitor, full curve, poor fit]"}, {"smiles": "NS(=O)(=O)c1ccc(N/C=C\\C(=O)c2ccc(F)cc2)cc1", "activity change, negative = inhibition": "inactive: 214%"}, {"smiles": "Cc1cccc(-c2nc(S(=O)(=O)c3ccc(F)cc3)c(NCCCN3CCOCC3)o2)c1", "Potency": "inconclusive [inhibitor, partial curve, poor fit]"}, {"smiles": "CCNc1nc(NCC)n2c(SCC(=O)Nc3ccccc3C(F)(F)F)nnc2n1", "Potency": "inconclusive [inhibitor, single point]"}, {"smiles": "CCCCN(C)C(=S)Nc1ccc2nc(N3CCN(CC)CC3)cc(C)c2c1", "Potency": "inconclusive [inhibitor, single point]"}, {"smiles": "CCN(CC)CCOC(=O)c1ccc(NC(=O)c2cn(-c3ccccc3)nc2-c2cccs2)cc1", "Potency": "inconclusive [inhibitor, full curve]"}, {"smiles": "O=C(Nc1ccccc1Cl)N1CCN(c2ccc3nnc(-c4ccc(F)cc4)n3n2)CC1", "Potency": "inconclusive [inhibitor, partial curve]"}, {"smiles": "COc1cccc(-c2cc(C(=O)NCC3CCCO3)c3cc(Br)cc(C)c3n2)c1", "note": "(stereo unspecified)", "Potency": "inconclusive [inhibitor, single point]"}, {"smiles": "COc1cc(-c2nc3c4ccccc4nc(=S)n3[nH]2)cc(OC)c1OC", "Potency": "inconclusive [inhibitor, full curve]"}, {"smiles": "O=C(COC(=O)CNC(=O)c1ccc(Br)o1)Nc1ccc2c(c1)OCCO2", "activity change, negative = inhibition": "inactive: 13.5%"}, {"smiles": "Cc1ccc(-c2cc(C(F)F)n3ncc(C(=O)N4CCCc5ccccc54)c3n2)cc1", "Potency": "inconclusive [inhibitor, partial curve, poor fit]"}, {"smiles": "COc1ccc(S(=O)(=O)N2CCC(C(=O)Nc3cc(Cl)ccc3N3CCOCC3)CC2)cc1OC", "Potency": "inconclusive [inhibitor, partial curve]"}, {"smiles": "COc1ccc(NS(=O)(=O)c2ccc(C)c(C(=O)NCCCN3CCCC3=O)c2)cc1", "Potency": "inconclusive [inhibitor, single point]"}, {"smiles": "O=C(CN(C(=O)Cn1nnc(-c2ccccc2F)n1)c1cccc2c1CCCC2)NCc1ccccc1", "Potency": "inconclusive [inhibitor, single point]"}, {"smiles": "O=C(Cn1nc(-c2ccc(Cl)cc2)c2ccccc2c1=O)Nc1cccnc1", "Potency": "inconclusive [inhibitor, single point]"}, {"smiles": "COc1cccc(N(CC(=O)NC2CCCC2)C(=O)CCC(=O)Nc2cc(C)on2)c1", "Potency": "inconclusive [inhibitor, partial curve]"}, {"smiles": "O=C1CCCc2c1cc(C(=O)NCCCN1CCOCC1)c(=O)n2-c1ccc(Cl)cc1", "activity change, negative = inhibition": "inactive: 2.97%"}, {"smiles": "Cc1ccc(S(=O)(=O)c2cc3c(=O)n4cccc(C)c4nc3n(CC3CCCO3)c2=N)cc1C", "note": "(stereo unspecified)", "Potency": "inconclusive [inhibitor, single point]"}, {"smiles": "N#Cc1ccccc1CSc1nc(N)cc(N)n1", "activity change, negative = inhibition": "inactive: -2.27%"}, {"smiles": "Cc1ccc(C(=O)NCCCNC(=O)Cc2ccc(Cl)cc2)cn1", "Potency": "inconclusive [inhibitor, partial curve, poor fit]"}, {"smiles": "Cn1cccc1CC(=O)N/N=C/c1ccc(Cl)c([N+](=O)[O-])c1", "Potency": "inconclusive [inhibitor, single point]"}, {"smiles": "O=C(Nc1ccc(-n2cnnn2)cc1)C(c1ccccc1)c1ccccc1", "Potency": "inconclusive [inhibitor, single point]"}, {"smiles": "Cc1ccc(S(=O)(=O)N(C)C)cc1NC(=O)COC(=O)/C=C/c1ccc2c(c1)OCO2", "activity change, negative = inhibition": "inactive: 4.75%"}, {"smiles": "O=C1CCCC2=C1C(c1ccc(O)cc1)c1c(ccc3ccccc13)N2", "note": "(stereo unspecified)", "Potency": "inconclusive [inhibitor, full curve, poor fit]"}, {"smiles": "COc1cc2c(cc1OC)CN(C(=O)c1cc(S(=O)(=O)N3CCOCC3)c(Cl)cc1Cl)CC2", "Potency": "inconclusive [inhibitor, partial curve]"}, {"smiles": "COc1cccc(C2c3c(oc4ccc(F)cc4c3=O)C(=O)N2CCCN2CCOCC2)c1", "note": "(stereo unspecified)", "Potency": "inconclusive [inhibitor, single point]"}, {"smiles": "COC(=O)C1=C(c2ccc(Cl)c(C(F)(F)F)c2)C[C@@H]2CC[C@H]1N2C(=O)N1CCOCC1", "Potency": "inconclusive [inhibitor, partial curve, poor fit]"}, {"smiles": "Cc1ccc(CNC(=O)c2ccc(N3CCC4(CC3)CC(c3cccc(Br)c3)=NO4)c(NC(=O)c3cccc(C)c3)c2)cc1", "Potency": "inconclusive [inhibitor, partial curve, poor fit]"}, {"smiles": "CCCCNC(=O)Nc1ccnn1C1CCCCC1", "Potency": "inconclusive [inhibitor, partial curve, poor fit]"}, {"smiles": "O=C(Nc1ccc(Cl)cc1)N1CCN(c2ccc3nnc(-c4ccc(F)cc4)n3n2)CC1", "Potency": "active: 9.28 µM"}, {"smiles": "Cc1ccc(S(=O)(=O)N(C)C)cc1NC(=O)CCCNC(=O)c1ccc(Cl)cc1", "Potency": "inconclusive [inhibitor, single point]"}, {"smiles": "COCCN1C=C(C(=O)OC)C(c2ccc(Cl)cc2)C(C(=O)OC)=C1", "Potency": "active: 10.4 µM"}, {"smiles": "Cc1c(O)ccc2c(CN3CCN(C/C=C/c4ccccc4)CC3)cc(=O)oc12", "Potency": "active: 2.62 µM"}, {"smiles": "COc1cc2c(c(OC)c1OC)-c1ccc(OC)c(=O)cc1[C@@H](NC(C)=O)CC2", "Potency": "inconclusive [inhibitor, single point]"}, {"smiles": "CN(C(=O)/C(N=Nc1cccc(C(F)(F)F)c1)=C(\\O)C(F)(F)F)c1ccccc1", "Potency": "inconclusive [inhibitor, partial curve]"}]}]}
